Data on one compound can be found in PMC9272661 (Antiviral Research, 2022).

The target in this test is Cathepsin L (CatL) (Homo sapiens, UniProt P07711). In words: biochemical.

The structures appear in SMILES notation.

By IC50 is commonly meant the concentration that inhibits the measured activity by half. The compound `CC(C)(C)NC(=O)N[C@H](C(=O)N1C[C@H]2[C@@H]([C@H]1C(=O)NC(CC1CCC1)C(=O)C(N)=O)C2(C)C)C(C)(C)C` (stereo partly shown) [Boceprevir, boceprevir, reference compound] came in with an IC50 of 500 nM.
